Experimental data from PubChem BioAssay AID493208 (National Center for Advancing Translational Sciences (NCATS), 2011).
The whole screen tested about 44,000 compounds, of which about 340 (0.77%) were called active. Roughly 5% stayed inconclusive and do not appear here. Calls follow the shape of the dose curve; as a rule, active = well fitted inhibition curve with a large enough effect; inconclusive = small, poorly fitted or top-dose-only effect; inactive = flat fitted curve, though single readings scatter. The list shows a part of the results.

Experiment: Acumen qHTS Assay for Inhibitors of the mTORC1 Signaling Pathway in MEF (Tsc2-/-, p53-/-) Cells: Sytravon; also: nearly all actives have a fitted effect of over 50% in size;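 as to activity change, negative = inhibition: plate controls were DMSO for no effect and rapamycin for full effect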
Settings: phospho-rpS6 immunofluorescence/PI, 24 h; series mostly up to 38.3 µM; activity change, negative = inhibition: at the top concentration
Procedure, shortened: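 Compounds act on Tsc2-/-, p53-/- fibroblasts carrying an empty vector for 24 h before fixation and dual staining for phospho-S6 and DNA (propidium iodide). Values are percentages of cells above a rapamycin-defined pS6/PI threshold.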
Potency is read from the fitted curve at half-maximal effect.

SMILES	activity change, negative = inhibition	Potency
CCn1c(C(=O)N2CCCC(C(=O)N3CCN(c4ccccc4)CC3)C2)cc2sccc21 (stereo not given)	inactive: 1.04%	
CCOc1ccccc1NC(=O)CSC1=Nc2ccccc2C2=NC(CC(=O)NCc3ccc4c(c3)OCO4)C(=O)N12 (stereo not given)	inactive: 4.34%	
Cc1nn(CC(=O)NCCc2ccccc2)c(=O)c2c1sc1ccccc12	inactive: -3.78%	
O=c1cc(-c2ccccc2)n2c(SCc3ccc(Br)cc3)nnc2[nH]1	inactive: -11%	
Cc1ccc(S(=O)(=O)NCC(c2ccc(N(C)C)cc2)N2CCc3ccccc32)cc1 (stereo not given)	inactive: 0%	
CCCCSCCCNC(=O)c1c[nH]c2ccc(S(=O)(=O)Nc3cccc(OC)c3)cc2c1=O	inactive: -4.03%	
Cc1cc2nc(N(Cc3cccnc3)C(=O)c3ccc(Cl)s3)sc2cc1C	inactive: -2.68%	
COc1ccc(-n2ccnc(NCCc3ccc(Cl)cc3)c2=O)cc1OC	inactive: 1.69%	
COc1ccccc1CN1C(=O)C(=O)c2cccc(C)c21	inactive: -2.1%	
O=C(Cc1ccccc1)Nc1nnc2n1CCS2	inactive: 1.78%	
CC(=O)N1c2ccc(S(=O)(=O)N(C)CC(=O)N(Cc3ccccc3)C(C)C)cc2CC1C (stereo not given)	inactive: -3.48%	
CC(C)(C)c1ccc(C(=O)N2CCN(CCc3ccccn3)CC2)cc1	inactive: 0.178%	
CCC(C)NC(=O)Cn1c(=O)n(-c2ccc(C)c(C)c2)c(=O)c2c(C)c(C(=O)N(CC)CC)sc21 (stereo not given)	inactive: 0.708%	
CCOc1ccccc1C(=O)N1CC(=O)Nc2ccc(C)cc2C1c1ccccc1 (stereo not given)	inactive: -20.8%	
Cc1ccc(CN2c3ccccc3-c3nc(SCC(=O)Nc4c(C)cc(C)cc4C)ncc3S2(=O)=O)cc1	inactive: -7.95%	
CCOc1ccccc1NC(=O)N1CCc2c(sc3c2CCCC3)C1c1ccccc1 (stereo not given)	inactive: 0%	
O=C(OCc1ccccc1Cl)c1ccc(-c2nnn(Cc3ccc(F)cc3)n2)cc1	inactive: 9.8%	
Cc1nn2c(=O)cc(COc3ccc(/C=C(\C#N)C(=O)Nc4ccccc4)cc3Cl)nc2s1	inactive: 0.739%	
Brc1ccc2c(c1)NC(c1cccnc1)=NC(c1ccccc1)=N2	inactive: -3.38%	
CCOc1cc(C(=O)NCc2nc(-c3cccc(C)c3)no2)cc(OCC)c1OCC	inactive: 3.55%	
COC(=O)c1ccccc1NC(=O)c1cc(CN2CCOCC2)on1	inactive: 0%	
CCc1cccc(C)c1Nc1c(-c2cccs2)nc2nc(C)cc(C)n12	inactive: -10.7%	
CCC(=O)Nc1ccc(CC)cc1-c1nc2ccccc2n(CC(=O)Nc2ccccc2C)c1=O	inactive: -3.97%	
Cc1ccc(NC(=O)Cn2c(=O)oc3cc(S(=O)(=O)N4CCCCC4)ccc32)c(C)c1	inactive: -9.79%	

SMILES	activity change, negative = inhibition	Potency
COc1ccc(-c2onc(C)c2C)cc1S(=O)(=O)Nc1cc(Cl)ccc1C	inactive: 0%	
O=C(CSc1nc2ccccc2nc1Cc1ccccc1F)Nc1cccc(C(F)(F)F)c1	inactive: -4.23%	
CCN(CC)c1ccc(NC(=O)CCS(=O)(=O)c2ccc3c(c2)oc(=O)n3C)c(C)c1	inactive: 4.62%	
Cc1ccc(CNc2ncnc3onc(C)c23)cc1	inactive: -8.67%	
CCCOc1ccc(C2c3c(-c4ccccc4O)n[nH]c3C(=O)N2Cc2cccnc2)cc1 (stereo not given)	inactive: -13%	
CC(C)OCCCn1c(=O)c2ccccc2n2c(-c3cc(Cl)ccc3O)nnc12	inactive: 0%	
COc1cc(C(=O)Nc2ccc(-c3nc4ccccc4o3)c(O)c2)cc(OC)c1OC	inactive: -2.87%	
Cc1cn2c(=O)cc(COC(=O)c3ccc(NC(=O)COc4ccc(C)c(C)c4)cc3)nc2s1	inactive: 16.7%	
COc1cc2c(cc1OC)C(COc1ccc(F)cc1)N(C(=O)Cc1ccccc1)CC2 (stereo not given)	inactive: 11.3%	
CCc1ccccc1NC(=O)CN1C(=O)c2cccnc2Sc2ccccc21	inactive: -2.36%	
Cc1ccc(Cn2c(CNC(=O)Cc3cccc([N+](=O)[O-])c3)nc3cccnc32)cc1	inactive: -4.78%	
CC(NC(=O)CSc1nc(-c2cccc(Cl)c2)nc2cc(=O)[nH]n12)c1nc2ccccc2n1C (stereo not given)	inactive: 11.3%	
COCc1nc2ccccc2n1Cc1cccc(C)c1	inactive: -0.896%	
CCn1c(=N)c(C(=O)NCC2CCCO2)cc2c(=O)n3cc(C)ccc3nc21 (stereo not given)	inactive: -6.04%	
O=S(=O)(NCC(c1ccccc1)N1CCc2ccccc21)c1ccccc1 (stereo not given)	inactive: 2.06%	
CCn1c(=O)cc(OCC(=O)N2CCN(c3cccc(Cl)c3)CC2)c2ccccc21	inactive: 0.624%	
CCCOc1ccc(NC(=O)CC2C(=O)N(c3ccc(F)cc3)C(=O)N2CC(C)C)cc1 (stereo not given)	inactive: -1.74%	
CCCCOc1ccc(CNC(=O)C2CCCN(c3nnc(-n4c(C)ccc4C)s3)C2)cc1 (stereo not given)	inactive: -4%	
COc1cc(C(=O)N2CCC(c3nc4ccccc4s3)CC2)cc(OC)c1OC	inactive: -1.71%	
COc1ccc(C2=C(C)C(=NCc3ccc(OC(C)C)cc3)NS2(=O)=O)cc1	inactive: -7.7%	
Cc1ccc2c(c1)sc1nc(=O)n(-c3ccc(Cl)c(Cl)c3)c(=O)n12	inactive: 0.715%	
Cc1ccc(S(=O)(=O)N2CCN(Cc3ccc4c(c3)OCO4)CC2)cc1	inactive: 3.28%	
CCc1ccc(-c2cc(C)no2)cc1S(=O)(=O)Nc1cc(OC)c(OC)c(OC)c1	inactive: -0.516%	
COc1ccc(C(=O)NCCn2cc(SCC(=O)Nc3ccc(F)cc3)c3ccccc32)cc1	inactive: 3.02%	

SMILES	activity change, negative = inhibition	Potency
CC(=O)Nc1ccc(S(=O)(=O)Nc2cccc(-c3ccc(N4CCCCCC4)nn3)c2)cc1	inactive: -1.29%	
CCNc1ccc(-c2nc(-c3ccncc3)no2)cc1[N+](=O)[O-]	inactive: 0%	
Cc1nn(CCCC(=O)Nc2cccc(C(F)(F)F)c2)c(=O)c2nn(-c3ccccc3)c(C)c12	inactive: -1.67%	
CCn1cc(C(=O)NCCc2ccc(Cl)cc2)c(=O)c2cc(S(=O)(=O)N3CCCCCC3)ccc21	inactive: 5.97%	
Cc1ccc2c(=O)c(C(=O)c3ccccc3)cn(CC(=O)Nc3ccccc3C)c2n1	inactive: -6.53%	
COc1cc(NC(=O)Cn2cnc3sc(C)c(S(=O)(=O)N4CCC(C)CC4)c3c2=O)cc(OC)c1OC	inactive: 10.8%	
Cc1nc(-c2ccc(S(=O)(=O)NCc3ccc(OC(C)C)cc3)cc2)co1	inactive: -1.63%	
O=C(COc1ccccc1F)Nc1ccc2nc(SCC(=O)N3CCCC3)sc2c1	inactive: -0.435%	
CCCN1C(=O)C(O)(CC(=O)c2ccc(CC)cc2)c2cc(Br)ccc21 (stereo not given)		active: 4.65 µM
Cc1cccc(OCC(=O)Nc2nonc2-c2ccc(Br)cc2)c1C	inactive: -4.16%	
CCOc1ccc(CC(=O)Nc2ccc3c(c2)N(C)C(=O)c2ccccc2S3)cc1OCC	inactive: -8.99%	
Cc1cccc(C)c1-n1ncc(C(=O)NCc2ccc3c(c2)OCO3)c1C1CCN(C(=O)OC(C)(C)C)CC1	inactive: -13.3%	
CCCCN(C)CCCNC(=O)c1cc(=O)[nH]c2ccc(S(=O)(=O)N3CCCCC3)cc12	inactive: 8.52%	
CC(=O)N1c2ccc(S(=O)(=O)NCC3CCC(C(=O)Nc4ccccc4C)CC3)cc2CC1C (stereo not given)	inactive: -25.7%	
O=C(Nc1ccc(OC(F)(F)F)cc1)C1CCCN(S(=O)(=O)c2cccc3nonc23)C1 (stereo not given)	inactive: -2.73%	
COc1ccc2c(c1)CCc1sc(NC(=O)c3ccc(Cl)cc3)nc1-2	inactive: -6.81%	
CCC1=Nc2cc(C(=O)NC(C)c3ccccc3)ccc2Sc2ccc(Cl)cc21 (stereo not given)	inactive: -15.8%	
COCCCNC(=O)CN1C(=O)COc2ccc(S(=O)(=O)N3CCCCCC3)cc21	inactive: -8.21%	
Cc1ccc(NC(=O)CCc2c(C)nc3c(-c4ccccc4)c(C)nn3c2C)c(C)c1	inactive: -0.641%	
COc1ccc(-n2c(=O)c3ccccc3n(CC(=O)NCCc3ccccc3)c2=O)c(OC)c1	inactive: 23%	
Cc1cccc(-n2cc(-c3ccccc3)c3c(NC(C)C)ncnc32)c1	inactive: -17.1%	
CC1CCN(S(=O)(=O)c2cn(CC(=O)Nc3ccc(F)c(Cl)c3)c(=O)c3ccccc23)CC1	inactive: 3.06%	
COC(=O)c1ccccc1NC(=O)CN(c1ccccc1OC)S(C)(=O)=O	inactive: 6.29%	
Cc1ccc(NC(=O)CSc2nc(-c3ccc(F)cc3)nc3c2Cc2c(CO)cnc(C)c2O3)cc1C	inactive: -1.42%	

SMILES	activity change, negative = inhibition	Potency
CN(Cc1ccccc1)C(=O)CCS(=O)(=O)c1cc(Br)cc2c1N(C(=O)C1CC1)CC2	inactive: -5.61%	
O=C(COc1ccccc1F)Nc1ccccc1OCc1cc(=O)n2ccccc2n1	inactive: 2.78%	
CC(C)c1ccc(NC(=O)c2ccc(F)c(S(=O)(=O)N3CCCC3)c2)cc1	inactive: 7.2%	
CCCc1nnc(N2C(=O)c3oc4ccc(F)cc4c(=O)c3C2c2ccc(C(=O)OC)cc2)s1 (stereo not given)	inactive: 1.64%	
COc1ccccc1OCC(=O)Nc1nnc2n1CCS2	inactive: -2.3%	
O=C(C1CCC1)N1CCc2cc(S(=O)(=O)N3CCN(c4ccccc4)CC3)ccc21	inactive: -9.41%	
COc1cc2ccccc2cc1C(=O)N1CCN(c2nc3c(C)cc(C)cc3s2)CC1	inactive: -1.49%	
CC1CCN(c2nnc(-n3cccc3CNc3cccc(F)c3)s2)CC1	inactive: -3.91%	
CCOc1ccc(-n2cc(C(=O)Nc3ccccc3OCC)c3cc(OC)c(OC)cc3c2=O)cc1	inactive: -0.0125%	
Cc1cccc(NC(=O)C2CCN(S(=O)(=O)c3cccc4nsnc34)CC2)c1	inactive: 1.28%	
CCC(C)NC(=O)Cn1c(=O)n(CC2CCC(C(=O)NC)CC2)c(=O)c2sccc21 (stereo not given)	inactive: -4.81%	
CCc1ccccc1NC(=O)N1CCN(c2nnc(C)c3c(C)n(-c4ccccc4)nc23)CC1	inactive: -3.04%	
CCOC(=O)c1c(NC(=O)CS(=O)(=O)c2ccc(C)cc2)sc2c1CCC(C)C2 (stereo not given)	inactive: -4.89%	
CC1CCN(C(=O)Cn2cc(SCc3cccc(F)c3)c3ccccc32)CC1	inactive: -20.1%	
Cc1ccc2nc(-c3ccccc3O)c(Nc3ccccc3C)n2c1	inactive: -2.72%	
O=c1cc(-c2ccccc2)nc(SCc2nc(-c3ccc(C(F)(F)F)cc3)no2)[nH]1	inactive: 3.84%	
COc1ccc(CNC(=O)CCc2cn(Cc3cc(C)ccc3C)c3ccccc23)cc1OC	inactive: -16.9%	
CC(C)(C)c1ccc(-c2nc3cc(NC(=O)c4cc5ccccc5o4)ccc3o2)cc1	inactive: -3%	
CCCOc1ccc(-c2nc3ccccc3c(=O)o2)cc1	inactive: 5.38%	
COc1ccc(NC(=O)NC2COc3ccccc3C2)c(OC)c1 (stereo not given)	inactive: 9.41%	
CC(C)c1ccc(NC(=O)C2CCN(S(=O)(=O)c3cccc4nsnc34)CC2)cc1	inactive: 0.961%	
O=C(Cn1ccn(-c2cccc(Cl)c2)c(=O)c1=O)NCCc1ccccc1	inactive: -0.488%	
Cc1c(C(=O)Nc2nc(-c3ccc(F)cc3)ns2)oc2ccc(Br)cc12	inactive: 2.92%	
